The other results are listed elsewhere or left out. Single values are uncertain, as repeats are few or missing.
tested on: MZ2-MEL; assay: cell count relative to DMSO control; melanoma cells; higher = more viable cells; settings: library dose: standard library concentration; 72 h
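Also: cells treated in 1,536-well plates, then fixed and DAPI-stained, with nuclei counted from automated high-throughput microscope images.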

SMILES | cell count [%]
CC(C)(C)c1cnc(CSc2cnc(NC(=O)C3CCNCC3)s2)o1 + COc1cc2c(Oc3ccc4[nH]c(C)cc4c3F)ncnc2cc1OCCCN1CCCC1 [cediranib] (first compound 0.05 µM, partner dose 2 µM) | 89.2
Cc1ccc(NC(=O)c2cccc(N(C)C)c2)cc1NC(=O)c1ccc(O)cc1 + CO[C@@H]1[C@H](N(C)C(=O)c2ccccc2)C[C@H]2O[C@]1(C)n1c3ccccc3c3c4c(c5c6ccccc6n2c5c31)C(=O)NC4 [Midostaurin] (first compound 10 µM, partner dose 0.4 µM) | 48.1
CCCCCCCCc1ccc(CCC(N)(CO)CO)cc1 [fingolimod] + Oc1nc(-c2ccc(C(F)(F)F)cc2)nc2c1CSCC2 [XAV939] (first compound 10 µM, partner dose 10 µM) | 64.1
Cc1ccc(NC(=O)c2cccc(N(C)C)c2)cc1NC(=O)c1ccc(O)cc1 + CN(NC(=O)CC(=O)NN(C)C(=S)c1ccccc1)C(=S)c1ccccc1 [STA4783] (first compound 10 µM, partner dose 0.03 µM) | 83.2
